According to the supplement of paper PMC10126150:
Values marked as one replicate rest on one cluster of the flow cell; about a third of the high ones do not repeat.

System: ATP
Assay: switch fluorescence ratio, 500 uM ATP over buffer (Cy3 cluster intensity, sum of 5 cycles each) (fold (ratio)); higher = stronger signal-on switching upon ATP binding; sequences stand for … in TCGTCGGCAGCGTCAGATGTGTATAAGAGACAGTTTTTTTTTTTTTTTTTTTTTTTTT…TC
Details: aptamer strand: ATP DNA aptamer (quencher-CACCTGGGGGAGTATTGCGGAGGAAGG + anchor), 100 nM annealed; ATP concentration: 500 uM; one replicate
How it was run: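 Per cluster, summed Cy3 intensity from the target cycles was divided by that from the buffer cycles to give the fluorescence ratio, then averaged per switch-domain sequence. Clusters outside 100-1000 RFU were excluded. The Cy3-labelled switching-strand clusters, on a modified Illumina MiSeq flow-cell, were annealed to 100 nM quencher-labelled ATP aptamer and imaged in selection buffer, then after 15 min with 500 uM ATP at 22 °C, for five cycles with NaOH stripping and re-annealing between them.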
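Note: ATP exposure 15 min at 22 °C before imaging.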

Sequence | switch fluorescence ratio
AGAAGCATTT | 1
CATTAGAATT | 0.996
TCCTGTTGGG | 0.984
GACGGTTACT | 1.18
GATTTCTTGC | 1.02
TCAACGGATA | 1.07
GGATTGATGA | 0.935
AAACACGGGG | 1.1
GAGACAGGCG | 0.965
GTTACGGGTT | 1.01
GCAGGGCTTA | 0.995
CTGAACTGGG | 0.983
GTAGGCCGCA | 1.01
TGGTATGAAG | 1.08
TTGGAAAGCG | 0.991
CAATGTCGCA | 0.994
GGGGAACTCC | 1.28
CGGAAGATGA | 0.961
TTCTCCCGGA | 1.13
TGAGTTCGTC | 0.996
TCACCGCGCG | 1.04
GCGGATATGT | 1.03
GGTCTCTTAG | 0.989
GATTATGTCT | 0.958
CTCGTCATAA | 1.17
CTTGAATCGG | 0.98

Sequence | switch fluorescence ratio
CCCCAAAGGG | 1.06
CATGTTTGAA | 1.01
CTGAACCATC | 1.1
TTTGCCTGAA | 1.03
TTGGGCCTAA | 1.03
TCCGGACTGG | 0.979
GGAGTAGGGG | 0.935
GAGGGCGAGG | 0.993
TCTGTGGTG | 1.01
TAAGCATGTT | 1.01
TCAACAGCGC | 0.998
ATTACAATTT | 0.97
ACCATACATT | 1.22
TTCGTAGCAT | 4.14
GACATATGGC | 1.14
CTGATGTGAA | 1.01
GTGATTTCGA | 0.967
ATCGAACTTA | 0.99
TAACCTTCT | 2.9
GGTAGAGTAG | 1.02
CGCCTGCTGC | 1.16
CGAAGCCTGC | 2.16
ACGATAGTCA | 0.992
GCATCTGGCA | 0.988
TGTAAGAAGA | 1
AGGAGGTTGC | 1.03

Sequence | switch fluorescence ratio
ATTATAGCGA | 0.898
TCGTCCAGAT | 1.04
AAGCATGGGG | 1.01
TTGTGGGT | 0.955
CATGGGGTCA | 1.01
GAGGGATAAG | 1
AGTCGGAGGA | 0.998
ACCGGACTTC | 1.07
CATTATATAG | 0.965
TTCGTAGTAT | 1.06
TGGATTAGAA | 1.02
GTATTAAGAG | 0.969
TCCAACCCCT | 1.02
TTATTGTAGT | 0.988
CATTAAAGGC | 1.02
CTCGGGCGTA | 0.995
ATCCTGGCCG | 0.997
CCACAATGCG | 4.14
TTGTAGGTAG | 1.02
CCCTAATCGT | 0.957
ACCAGCGACT | 1.05
CTGGTAGTTC | 1.02
TAATAGCTGT | 0.976
TGCGATGTAA | 1.02
CAGGATACTA | 0.992
AGCTTGGCAC | 0.997

Sequence | switch fluorescence ratio
GAACCGGGGG | 0.983
TTTGAAACAT | 1.05
TAAGTCGGCC | 1.05
GAAACTTCAC | 1.15
CATACTTCGC | 1.32
GCCATATAAA | 0.981
AGTGGGTTGC | 0.985
CACGTTTCCG | 0.944
AAACTAATAC | 1.48
GGTAACTGCG | 0.98
TCGCCCGTT | 1.04
ATTCCAGTGT | 1.02
TAATTATCTG | 1.03
CCAAGTCTCA | 0.982
GTTCCAGCGC | 1.1
CGTTTGTGGT | 0.98
TCGCAAATCG | 1.81
GTGTCTAGTG | 1.03
GGGGAAGCC | 1.02
TAACTTAGGC | 1.04
GCATGCGAT | 1
GTATATGGCG | 1.13
GGTCACGCCA | 1.01
GTCCAATCGC | 1.08
GACCTATGCT | 0.996
GTACGCCGCG | 0.987

Sequence | switch fluorescence ratio
CCCATAACT | 1.05
ACTTTCGACT | 1.13
CGGCACGCTG | 1
TCGATAAGTG | 0.915
GGTAGTTATA | 0.977
TTCATTAGAG | 1.01
GATGCTTTGC | 1.07
AATGTTGCGA | 0.993
AGCCATGTCA | 1.05
ACTAAATCCC | 1.02
AGGCGATGGT | 1.02
AGAACCAGAC | 1.72
TGCAGAATTC | 1.23
TCGAATCGGC | 0.964
ACTAGCCCT | 1.04
AATCCTCATG | 1.02
ATAGGCCATA | 1.07
TGTGAGCCCC | 1
TATCCTAGGT | 1.02
TTCTGCTAAC | 1.56
AGAACACGCT | 0.978
CTCAAGGTTT | 0.987
TCCTTGGGCA | 1.08
TGCCGGAAGC | 0.99
CAGGGGACCT | 1.27
ATTAGCTTGG | 0.988

Sequence | switch fluorescence ratio
GATTTGGAT | 0.99
GTACGACACC | 1.8
CAACATTAC | 1.45
TACTCTCATC | 1.08
CGTATAGGGG | 0.939
CGGACGCCAA | 2.78
TAAACGGCCT | 1
ACGAGTGTTC | 1.05
AAGTGTTAGG | 1.22
GGTCCTTCGG | 1.03
GATTAGGTTC | 0.979
ATACAGGATG | 1.01
CTATGGAGGA | 1.01
AACAAGGTAC | 1.09
TGAATTTAGG | 0.998
GCCCTAAGCC | 0.971
CTTAAGAAG | 0.975
TTTATTTGGC | 0.948
ATCATGGTAC | 1.06
GAATGAGGTA | 1.01
TCCCAGGAAT | 1.13
CTTTTCGTCC | 1.02
TTAATACGTT | 1.05
